# Assay results: paper PMC4336329 (PLoS ONE, 2015)
# About 14,000 (4.5%) of roughly 310,000 compounds showed an effect of 50% or more. Effects have a minus sign here. Some of the results follow.
# Biological target: human ether-à-go-go-related gene (hERG) potassium channel (human, UniProt Q12809)
# Experiment: primary screen, population patch clamp on CHO cells stably expressing hERG
# 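Also: peak tail current of the secondary pulse compared with the same well before compound.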
# Chain of human ether-à-go-go-related gene (hERG) potassium channel (Q12809 whole entry, looked up): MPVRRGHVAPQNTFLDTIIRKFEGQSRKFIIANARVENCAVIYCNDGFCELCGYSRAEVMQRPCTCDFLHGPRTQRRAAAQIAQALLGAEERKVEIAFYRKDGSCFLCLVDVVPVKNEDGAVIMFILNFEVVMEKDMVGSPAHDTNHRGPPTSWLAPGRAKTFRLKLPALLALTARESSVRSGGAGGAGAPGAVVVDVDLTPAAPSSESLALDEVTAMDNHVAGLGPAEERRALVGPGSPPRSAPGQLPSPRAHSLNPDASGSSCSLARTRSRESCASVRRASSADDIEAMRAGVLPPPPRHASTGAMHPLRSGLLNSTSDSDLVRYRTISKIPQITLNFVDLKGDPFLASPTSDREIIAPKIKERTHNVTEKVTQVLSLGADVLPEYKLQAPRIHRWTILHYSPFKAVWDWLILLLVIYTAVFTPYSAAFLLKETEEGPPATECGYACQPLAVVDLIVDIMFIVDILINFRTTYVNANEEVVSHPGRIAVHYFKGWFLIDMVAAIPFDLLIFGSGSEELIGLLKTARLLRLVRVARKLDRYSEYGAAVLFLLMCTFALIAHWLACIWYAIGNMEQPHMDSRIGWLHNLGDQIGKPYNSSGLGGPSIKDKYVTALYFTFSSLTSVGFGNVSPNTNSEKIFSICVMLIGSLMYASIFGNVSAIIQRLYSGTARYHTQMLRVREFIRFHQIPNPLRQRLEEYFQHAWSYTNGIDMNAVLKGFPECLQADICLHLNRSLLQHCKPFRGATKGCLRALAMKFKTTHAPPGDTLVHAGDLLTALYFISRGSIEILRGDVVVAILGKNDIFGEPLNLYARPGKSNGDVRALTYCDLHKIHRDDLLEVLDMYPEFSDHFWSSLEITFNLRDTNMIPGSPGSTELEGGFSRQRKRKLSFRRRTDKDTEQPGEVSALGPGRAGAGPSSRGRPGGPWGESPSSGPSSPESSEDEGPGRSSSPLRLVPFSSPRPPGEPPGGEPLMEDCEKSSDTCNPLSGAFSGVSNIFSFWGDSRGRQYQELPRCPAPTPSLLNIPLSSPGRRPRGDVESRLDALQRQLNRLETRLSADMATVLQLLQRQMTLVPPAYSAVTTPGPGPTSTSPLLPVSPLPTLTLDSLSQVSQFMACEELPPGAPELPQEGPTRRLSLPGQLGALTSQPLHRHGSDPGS
row,SMILES,"hERG current change (%, negative = inhibition) at 10uM [%]"
1,Cc1ccc(C)c(C(=O)CSc2n[nH]c(C)n2)c1,3.61
2,O=C1Nc2cc(C(=O)N3CCC(N4CCCCC4)CC3)ccc2S/C1=C\c1ccccc1,-58.3
3,Cn1c(=O)c2[nH]cnc2n(-c2ccccc2)c1=O,3.59
4,CCN(CC)CCSc1nc2ccccc2n1Cc1ccccc1.Cl,-74.1
5,Cc1ccc(NS(=O)(=O)c2cc(NC(=O)c3cc4c(s3)CCCC4)ccc2C)c(C)c1,-5.77
6,Cc1sc(NC(=O)C2CCCCC2C(=O)O)c(C(N)=O)c1-c1ccccc1 (stereo not drawn),3.55
7,O=C(Nc1cccc(S(=O)(=O)C(F)F)c1)c1ccc(S(=O)(=O)N2CCCCC2)cc1,16.3
8,CC(C)(C)C(=O)COC(=O)c1cc(-c2cccnc2)nc2ccccc12,-28
9,O=C(Nc1cnc2ccccc2c1)C1COc2ccccc2O1 (stereo not drawn),-23.7
10,CCOc1cc(C2NC(=O)NC(O)(C(F)(F)F)C2C(=O)c2ccccc2)ccc1OC (stereo not drawn),-1.06
11,Cc1ccc(S(=O)(=O)c2nc(-c3ccc(F)cc3)oc2SCC(=O)NCC2CCCO2)cc1 (stereo not drawn),11.5
12,Cc1cccc(Cn2cc3c(=O)n(Cc4cccc(F)c4)nc-3c3ccccc32)c1,13
13,CN1CCN(c2nc(-c3ccccc3Cl)nc3ccccc23)CC1,-73.8
14,COc1ccccc1CNC(=O)N[C@@H](Cc1ccccc1)C(=O)O,0.272
15,O=C1NC(=O)/C(=C\c2ccc(O)cc2O)S1,25.2
16,CC(Oc1ccccc1Cl)C(=O)N1CCOCC1 (stereo not drawn),2.79
17,C=CCSc1nnc(-c2cc3c(-c4ccccc4)nn(C)c3s2)n1C,-39
18,O=C(COc1ccc(S(=O)(=O)N2CCCC2)cc1)NCc1cccnc1,-3.42
19,COc1ccc(CC(=O)NCCCSc2ccccc2)cc1OC,-0.803
20,Cc1ccc(C(=O)NCC(=O)N2CCCCCCC2)cc1C,-6.81
21,COC(=O)c1ccc(OCCOc2ccc(C(=O)OC)cc2)cc1,-14.3
22,O=C(CS(=O)(=O)c1ccccc1)Nc1ccc(S(=O)(=O)Nc2ncccn2)cc1,34.6
23,CC(C)CCNC(=O)CN(CC1CCCO1)C(=O)CCC(=O)Nc1nccs1 (stereo not drawn),-10.3
24,CCOC(=O)NC(=O)/C(N=Nc1cc(C)cc(C)c1)=C(\C)O,18.1
